Assay results reported in PubChem BioAssay AID1745845 (National Center for Advancing Translational Sciences (NCATS), 2022).
In all, about 360,000 compounds went through this assay and about 2,600 (0.72%) were called active. The inconclusive results got no clear call from the source; some entries with a clear call stand among them for comparison. The call rests on the fitted dose curve; in most records, active means well fitted inhibition curve with a large enough effect; inconclusive means small, poorly fitted or top-dose-only effect; inactive means no such curve, though single readings can be large or run the other way. Potencies beside an inconclusive call are fits to weak or partial responses and may not hold up.

assay: Primary qHTS for Inhibitors of ATXN expression; settings: HEK-293 ATXN2-luciferase reporter, luminescence, 24 h; activity change, negative = inhibition: at 57 µM (top of the series); further: nearly all actives have a fitted effect of over 55% in size
Procedure, shortened: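 ATXN2-luciferase reporter cells (luciferase flanked by upstream and downstream ATXN2 gene portions) were treated 24 h at 37 °C with compounds at up to 57 uM. SteadyGlo luminescence gave expression; GF-AFC fluorescence gave viability.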
On the % scale 0 is the no-effect control and ±100 the full control effect; potency means the concentration at half of the fitted maximal effect; tags describe the fitted curve by direction and shape.

Structure (SMILES) | activity change, negative = inhibition | Potency
O=C(Nc1ccc(Cl)cc1)c1ccc(CN2CCc3ccccc3C2)cc1 | inconclusive: -40.2% [inhibitor] | –
CCc1ccc(-n2nc(C)c3c(C(=O)Nc4cccc(C(F)(F)F)c4)cc(C)nc32)cc1 | – | inconclusive: 39.8 µM [inhibitor, single point]
CCCCCCCCn1c2c(c(=N)c3c1CCC3)CCCC2 | – | active: 0.891 µM
CN(Cc1ccc(Cl)cc1)C(C(=O)NC1CCCCC1)c1ccnc2ccccc12 (stereo not drawn) | – | inconclusive: 39.8 µM [inhibitor, single point]
Cc1ccc(SCCNC(=O)c2ccccc2)cc1 | inactive: -21.7% | –
CCC(=O)NC(c1ccccc1OC)c1ccc2cccnc2c1O (stereo not drawn) | – | inconclusive: 6.31 µM [inhibitor, partial curve, poor fit]
CCCOc1ccc(C(=O)Nc2cccc(-c3nc4ccccc4[nH]3)c2)cc1 | – | inconclusive: 39.8 µM [inhibitor, single point]
CCN1CCN(Cc2c(O)ccc3c2O/C(=C\C=C\c2ccccc2)C3=O)CC1 | – | inconclusive: 17.8 µM [inhibitor, single point]
CCCCN(Cc1ccccc1)S(=O)(=O)c1cc(Br)cc2c1N(C(C)=O)C(C)C2 (stereo not drawn) | – | inconclusive: 28.2 µM [inhibitor, single point]
COc1cc2c(cc1Cl)/C(=C\CCN(C)C)c1ccccc1S2 | inactive: -36.6% | –
CCC(CO)[n+]1c(C)cc(/C=C2\Sc3ccccc3N2Cc2ccccc2)cc1C (stereo not drawn) | – | inconclusive: 10 µM [inhibitor, partial curve]
CCOc1ccc(NC(=O)CN(C)C(=O)CCc2ccccc2Cl)cc1OCC | inactive: 4.53% | –
CN(c1ccccc1)S(=O)(=O)c1ccc(NC(=S)NC(=O)c2ccccc2)cc1 | inactive: -1.74% | –
O=S(=O)(/N=C(/Nc1ccc(Cl)c(S(=O)(=O)Nc2ccccc2Cl)c1)c1ccc(F)cc1)c1ccccc1 | – | inconclusive: 37.7 µM [inhibitor, single point]
Cc1ccc(NC(=O)C2CCCN(S(=O)(=O)c3c(C)noc3C)C2)c(Br)c1 (stereo not drawn) | inactive: 0.13% | –
CN1CCc2c(c3ccccc3n2C)C1 | inactive: -8.58% | –
Cc1ccnc(NC(c2ccccc2)c2ccc3cccnc3c2O)c1 (stereo not drawn) | – | inconclusive: 31.6 µM [inhibitor, single point]
O=C(CCC(=O)Nc1ccc(Cl)cc1Cl)N/N=C/c1ccc([N+](=O)[O-])o1 | – | inconclusive: 39.8 µM [inhibitor, single point]
CCn1c(-c2ccccc2Cl)nn(CC(=O)Nc2cc(Cl)ccc2Cl)c1=S | inactive: -25.2% | –
O=C(Nc1ccc2c(c1)CCC2)C1CCN(c2c3c(nc4ncnn24)CCC3)CC1 | – | inconclusive: 22.4 µM [inhibitor, partial curve, poor fit]
CCOC(=O)C1C(=O)NC(SC)=C(C#N)C1c1ccccc1F (stereo not drawn) | inactive: 0.142% | –
CCN(CC)c1ccc2c(Cl)c(Br)c(=O)oc2c1 | – | inconclusive: 28.2 µM [inhibitor, single point]
Cc1cc(C)cc(NC(=O)C2CCCN(c3nnc(C)c4c(C)n(-c5ccccc5)nc34)C2)c1 (stereo not drawn) | – | inconclusive: 8.91 µM [inhibitor, full curve]

Structure (SMILES) | activity change, negative = inhibition | Potency
O=C(NCc1ccc2c(c1)OCO2)c1cc(-c2ccccn2)nc2ccccc12 | inactive: -22.3% | –
Cc1ccc(-c2nc(NC(=O)c3nn(C)cc3[N+](=O)[O-])sc2C)cc1C | – | inconclusive: 28.2 µM [inhibitor, single point]
Cc1ccc(C)c(C(=O)COC(=O)c2cc([N+](=O)[O-])ccc2N2CCOCC2)c1 | inactive: -2.31% | –
CCN(CC)C(=O)c1cccc(-c2csc(C(O)c3ccc(F)c(F)c3)n2)c1 (stereo not drawn) | – | inconclusive: 20 µM [inhibitor, single point]
Nc1ccc(-c2cnc(-c3ccc(N)cc3)nc2)cc1 | – | inconclusive: 20 µM [inhibitor, single point]
O=c1[nH]c(=S)c2ncn(-c3ccccc3)c2[nH]1 | inactive: 1.37% | –
COC(=O)c1ccc(C(=O)OC)c(NC(=O)CN2CCN(c3ccccc3OC)CC2)c1 | – | inconclusive: 39.8 µM [inhibitor, single point]
CN1C(=O)/C(=C/c2cccc(Cl)c2)Sc2ccc(C(=O)N3CCOCC3)cc21 | – | inconclusive: 35.5 µM [inhibitor, partial curve, poor fit]
COc1cc(NC(=O)c2csc(-c3ccncc3)n2)cc(C(=O)Nc2cccc(C(F)(F)F)c2)c1 | – | inconclusive: 4.47 µM [inhibitor, partial curve, poor fit]
Cc1cc2cc3c(cc2nc1SCC(=O)Nc1nc(C)c(C)s1)OCO3 | – | inconclusive: 12.6 µM [inhibitor, partial curve, poor fit]
O=S(=O)(NCCc1ccccc1)c1ccc(N2CCCCS2(=O)=O)cc1 | inactive: -29.9% | –
CCCCN(C)C(=O)c1ccc(Nc2nc(C(N)Cc3ccccc3)cs2)nc1 (stereo not drawn) | – | inconclusive: 31.6 µM [inhibitor, single point]
O=C(Nc1nc(-c2ccccn2)cs1)Nc1ccc(F)cc1F | – | active: 14.1 µM
Cc1cccc(NC(=O)C2CCCN(c3ncnc4c3nc3n4CCCCC3)C2)n1 (stereo not drawn) | inactive: -24.3% | –
COc1ccc(-n2ccc(=O)c3c2CCCC3=O)cc1 | inactive: 2.01% | –
O=C(CCCCCn1c(=S)[nH]c2ccc(N3CCOCC3)cc2c1=O)NCc1ccc2c(c1)OCO2 | – | inconclusive: 42.3 µM [inhibitor, single point]
O=C(Nc1cc(Cl)ccn1)C1CCN(S(=O)(=O)c2cccs2)CC1 | – | inconclusive: 22.4 µM [inhibitor, single point]
CCC(COC(=O)c1ccccc1)Oc1cc(NCc2ccccc2)c2ncn(C(C)C)c2c1 (stereo not drawn) | – | inconclusive: 15.8 µM [inhibitor, partial curve]
CCCCn1c(/C=N/Nc2nc3ccccc3[nH]2)nc2ccccc21 | – | inconclusive: 11.2 µM [inhibitor, partial curve, poor fit]
COc1ccccc1C(=O)Nc1cc2c(cc1N1CCCCC1)n(C)c(=O)n2C | inactive: -9.77% | –
CCOCCOC(=O)c1ccc(NC(=O)/C=C/c2ccc(OC)c(OC)c2)cc1 | – | inconclusive: 31.6 µM [inhibitor, single point]
CC1CC(C)CN(CCCSc2ccccc2)C1 (stereo not drawn) | inactive: -15.6% | –
CCOC(=O)[C@@H](C)N(C(=O)OC(C)(C)C)S(=O)(=O)N(Cc1ccccc1)[C@H](C(=O)OC)C(C)C | inactive: -8.26% | –

Structure (SMILES) | activity change, negative = inhibition | Potency
CCOC(=O)N1CCC(N2CCN(S(=O)(=O)c3ccc(C)cc3)CC2)CC1 | inactive: -6.97% | –
Cc1ccc(C(=O)Nc2ccc(CN3CCN(C)CC3)c(C(F)(F)F)c2)cc1C#Cc1cnc2cccnn12 | – | active: 19.3 µM
O=C(Nc1ccccn1)c1ccc2ccccc2n1 | inactive: 73.3% | –
Cc1cc(C)cc(NC(=O)c2nnn(Cc3cc(C)ccc3C)c2N)c1 | – | inconclusive: 3.16 µM [inhibitor, full curve, poor fit]
COc1cc(/C=C/C(O)=C/C(=O)/C=C/c2ccc(O)cc2)ccc1O | – | inconclusive: 25.1 µM [inhibitor, single point]
CC(C)OCCCN(Cc1ccco1)C(=O)c1cc2c(s1)-c1ccccc1OC2 | – | inconclusive: 17.8 µM [inhibitor, single point]
O=C(Nc1ccccc1C(=O)Nc1nnc(C(F)(F)F)s1)c1ccccc1 | – | inconclusive: 5.62 µM [inhibitor, full curve, poor fit]
O=C(CCCCn1c(=O)c2ccccc2n(Cc2ccccc2F)c1=O)NC1CCN(Cc2ccccc2)CC1 | – | inconclusive: 15.8 µM [inhibitor, partial curve]
COc1ccc(C(CCNCc2ccc(OC(C)C)cc2)C(C)C)cc1 (stereo not drawn) | – | inconclusive: 39.8 µM [inhibitor, single point]
C/C(=N\Nc1nc(N2CCCCC2)nc(N2CCOCC2)n1)c1ccccc1O | – | inconclusive: 12.6 µM [inhibitor, partial curve, poor fit]
COC(=O)C1=C(C)N(Cc2ccccc2)C(=NCc2cc(OC)c(OC)c(OC)c2)N[C@H]1c1ccc(Br)cc1 | – | inconclusive: 31.6 µM [inhibitor, single point]
Cc1nn2c(NCCCN(C)C)c3c(nc2c1-c1ccccc1)CCCC3 | – | inconclusive: 7.94 µM [inhibitor, partial curve, poor fit]
Cc1cccc(N2CCN(C(=O)C3CCCN(S(=O)(=O)c4c(C)noc4C)C3)CC2)c1C (stereo not drawn) | – | inconclusive: 31.6 µM [inhibitor, partial curve, poor fit]
CC(C)N1C/C(=C/c2ccsc2)C(=O)/C(=C/c2ccsc2)C1 | – | inconclusive: 31.6 µM [inhibitor, single point]
Cc1ccc(Cl)cc1N1CCN(C(=O)CSc2nnc3n2C(C)(C)Cc2ccccc2-3)CC1 | – | inconclusive: 28.2 µM [inhibitor, single point]
O=C1COc2ccc(C(=O)COC(=O)c3nc(Cl)ccc3Cl)cc2N1 | inactive: -11.7% | –
COc1ccccc1N1CCN(C(=O)Cn2ncc3c(=O)oc4ccccc4c32)CC1 | – | inconclusive: 35.5 µM [inhibitor, single point]
COc1ccc(CN2CCCCCC2)cc1OC | inactive: -30.1% | –
CSc1ccc(CN2CCC(CO)(Cc3ccc(Cl)cc3)CC2)cc1 | – | inconclusive: 14.1 µM [inhibitor, partial curve]
O=C(Nc1nnc(-c2cccs2)o1)c1cccc(Oc2ccccc2)c1 | – | inconclusive: 25.1 µM [inhibitor, single point]
O=C(NC1CCCCC1)c1ccc(NS(=O)(=O)c2cccc3cccnc23)cc1 | – | inconclusive: 1.5 µM [inhibitor, single point]
CN(C)CCCC(=O)c1ccc2c(c1)OCO2 | inactive: -6.86% | –
